Structures are written as SMILES. Screen size: about 310,000 compounds; about 2,200 (0.71%) showed an effect of 50% or more. The effect is printed as a negative number. The list shows a part of the results.

The target of the experiment is human ether-à-go-go-related gene (hERG) potassium channel (human, UniProt Q12809). Nature of the experiment: primary screen, population patch clamp on CHO cells stably expressing hERG.
human ether-à-go-go-related gene (hERG) potassium channel, sequence (Q12809 whole entry, looked up): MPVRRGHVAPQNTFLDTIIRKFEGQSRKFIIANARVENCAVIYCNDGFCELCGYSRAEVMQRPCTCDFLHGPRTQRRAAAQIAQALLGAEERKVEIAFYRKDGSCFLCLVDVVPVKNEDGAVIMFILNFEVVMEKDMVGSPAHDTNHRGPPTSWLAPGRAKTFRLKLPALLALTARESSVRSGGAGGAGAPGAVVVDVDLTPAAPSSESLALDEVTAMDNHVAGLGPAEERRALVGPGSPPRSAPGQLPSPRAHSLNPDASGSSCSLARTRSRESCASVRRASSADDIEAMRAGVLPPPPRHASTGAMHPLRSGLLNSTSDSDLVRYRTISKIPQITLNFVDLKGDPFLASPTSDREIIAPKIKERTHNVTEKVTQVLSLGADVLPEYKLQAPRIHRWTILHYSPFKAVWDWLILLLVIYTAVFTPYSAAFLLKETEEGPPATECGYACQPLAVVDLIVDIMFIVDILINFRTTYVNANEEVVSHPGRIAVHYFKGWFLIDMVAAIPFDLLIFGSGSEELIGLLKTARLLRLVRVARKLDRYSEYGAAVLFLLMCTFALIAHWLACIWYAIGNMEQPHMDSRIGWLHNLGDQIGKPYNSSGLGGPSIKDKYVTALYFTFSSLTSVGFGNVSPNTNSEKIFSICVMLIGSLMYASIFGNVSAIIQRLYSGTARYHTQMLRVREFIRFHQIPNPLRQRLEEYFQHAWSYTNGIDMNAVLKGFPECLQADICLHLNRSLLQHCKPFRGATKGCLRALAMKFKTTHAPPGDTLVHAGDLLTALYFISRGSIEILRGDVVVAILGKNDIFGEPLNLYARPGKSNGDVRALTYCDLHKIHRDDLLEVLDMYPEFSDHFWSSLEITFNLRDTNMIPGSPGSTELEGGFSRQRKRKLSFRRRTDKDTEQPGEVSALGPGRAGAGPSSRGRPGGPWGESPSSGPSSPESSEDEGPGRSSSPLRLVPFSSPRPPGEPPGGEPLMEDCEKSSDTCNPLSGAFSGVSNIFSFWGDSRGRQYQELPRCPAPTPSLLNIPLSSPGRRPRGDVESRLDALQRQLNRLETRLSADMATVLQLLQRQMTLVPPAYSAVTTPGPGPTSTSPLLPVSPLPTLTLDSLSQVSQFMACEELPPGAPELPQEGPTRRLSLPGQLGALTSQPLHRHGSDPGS
With `COC(=O)CCC(=O)OC1(C)C(=O)C2=CN(C3CC3)C(c3ccc(OC)cc3)=CC2=C(Br)C1=O` (stereo not drawn), the “hERG current change (%, negative = inhibition) at 1uM” value was determined as 12.2%.

As for `COc1cc(OC)c(OC)cc1CNCCc1cccc(F)c1.O=C(O)C(=O)O`, the “hERG current change (%, negative = inhibition) at 1uM” value is -4.29%.

Regarding `O=C(Nc1ccccc1)Nc1ccc(Cl)c([N+](=O)[O-])c1`, the “hERG current change (%, negative = inhibition) at 1uM” value was determined as 14.8%.

On to `O=C(c1cccn2c(=O)c3cc4ccccc4cc3nc12)N1CCN(c2ccccc2)CC1`, for which the “hERG current change (%, negative = inhibition) at 1uM” value is given as -2.39%.

As for `Cc1ccc(NC(=O)CSc2nc(N)cc(N)n2)cc1S(=O)(=O)N1CCOCC1`, the “hERG current change (%, negative = inhibition) at 1uM” value was 14.8%.

As for `CC12CCC(=O)N1C(C(=O)Nc1cccc(S(=O)(=O)N3CCCCCC3)c1)CS2` (stereo not drawn), the “hERG current change (%, negative = inhibition) at 1uM” value was -29.7%.

`COc1ccc(N(CC(=O)NN=C2CCCCCCC2)S(=O)(=O)c2ccccc2)cc1Cl`: the “hERG current change (%, negative = inhibition) at 1uM” value is listed as 11.8%.

Regarding `O=C(Nc1ccnc(-c2cccnc2)n1)c1ccc(Cl)c(Cl)c1`, the “hERG current change (%, negative = inhibition) at 1uM” value is reported as -0.376%.

`Cc1cc(Cl)ccc1OCc1n[nH]c(=S)n1C1CCCCC1`: the “hERG current change (%, negative = inhibition) at 1uM” value is listed as 14.2%.

For `O=C1CNCc2[nH]c3ccccc3c2N1c1ccccc1`, the “hERG current change (%, negative = inhibition) at 1uM” value is recorded as -0.52%.

In the case of `CC(C)[C@H](NC(=O)NCCc1ccc(Cl)cc1)C(=O)O`, the “hERG current change (%, negative = inhibition) at 1uM” value was -6.57%.

Turning to `Cc1noc(C)c1S(=O)(=O)N(CC(=O)NC(C)c1ccccc1)c1ccc(C(C)C)cc1` (stereo not drawn), the “hERG current change (%, negative = inhibition) at 1uM” value was 10.1%.

As to `Cc1cc(C)c(NC(=O)CSc2nnc(Cc3cccn3C)n2-c2ccc(F)cc2)c(C)c1`, the “hERG current change (%, negative = inhibition) at 1uM” value was 9.06%.

With `O=C(O)C1CCN(S(=O)(=O)Cc2ccccc2)CC1`, the “hERG current change (%, negative = inhibition) at 1uM” value was 14.8%.

Regarding `CCOc1ccc(S(=O)(=O)NCCSCc2ccco2)cc1`, the “hERG current change (%, negative = inhibition) at 1uM” value is recorded as -1.82%.

On to `Cc1occc1C(=O)Nc1cc(C(C)(C)C)on1`, for which the “hERG current change (%, negative = inhibition) at 1uM” value was -11.3%.

In the case of `O=C(N=C1SC2CS(=O)(=O)CC2N1c1ccc(Br)cc1)C1CCCO1` (stereo not drawn), the “hERG current change (%, negative = inhibition) at 1uM” value is reported as 9.7%.

As to `COc1ccc(N/C=C/C(=O)c2ccc(Oc3ncccn3)cc2)cc1`, the “hERG current change (%, negative = inhibition) at 1uM” value was determined as 11%.

As to `CCOC(=O)CCSc1n[nH]c(=S)s1`, the “hERG current change (%, negative = inhibition) at 1uM” value was found to be 9.9%.

For the compound `O=C(Nc1ccccc1F)c1ccc(CSc2ncccn2)cc1`, the “hERG current change (%, negative = inhibition) at 1uM” value was 11.4%.

`CC(=O)c1cccc(NC=C2C(=O)OC3(CCCCC3)OC2=O)c1`: the “hERG current change (%, negative = inhibition) at 1uM” value is -10.3%.

As to `Cc1cccc(NC(=S)NCCc2ccc(Cl)cc2)c1C`, the “hERG current change (%, negative = inhibition) at 1uM” value stood at 14.1%.

Regarding `O=C(Cn1ncc2c3ccccc3n(Cc3ccccc3)c2c1=O)NCCN1CCOCC1`, the “hERG current change (%, negative = inhibition) at 1uM” value is -18%.

On to `Cc1ccc(CC2CC(=O)N(c3nc4ccccc4n3C)C2=O)cc1` (stereo not drawn), for which the “hERG current change (%, negative = inhibition) at 1uM” value turned out to be 1.89%.

For `Cc1ccc(C)c(OCC(=O)Nc2ccccc2C(=O)N2CCOCC2)c1`, the “hERG current change (%, negative = inhibition) at 1uM” value was 15.7%.

Take `COc1cccc(NC(=O)NCCCN2CCN(c3ccc(F)cc3)CC2)c1`: the “hERG current change (%, negative = inhibition) at 1uM” value is listed as -51%.

With `COC(=O)c1ccc(S(=O)(=O)N2CCN(C)CC2)n1C`, the “hERG current change (%, negative = inhibition) at 1uM” value is reported as 12.6%.

`Cc1ccc(S(=O)(=O)N2CCN(S(=O)(=O)N3CCCCCC3)CC2)cc1`: the “hERG current change (%, negative = inhibition) at 1uM” value turned out to be 17.6%.

As to `CC(=O)N1CCC(N(CCCOC(C)C)C(=O)Nc2ccc(C)c(C)c2)CC1`, the “hERG current change (%, negative = inhibition) at 1uM” value is 1.97%.

Take `COc1ccc(C(=O)Nc2ccccc2[N+](=O)[O-])cc1S(=O)(=O)N1CCOCC1`: the “hERG current change (%, negative = inhibition) at 1uM” value was 7.55%.

With `Cc1cc2cc(CCNC(=O)c3ccc(Br)o3)c(=O)[nH]c2cc1C`, the “hERG current change (%, negative = inhibition) at 1uM” value is -4.97%.

As to `COc1ccc(/C=C/C(=O)N(C)C2CCS(=O)(=O)C2)cc1OC` (stereo not drawn), the “hERG current change (%, negative = inhibition) at 1uM” value turned out to be 9.69%.

As for `O=C(Cc1ccc(Br)cc1)c1ccc(O)cc1O`, the “hERG current change (%, negative = inhibition) at 1uM” value is on record as 14.7%.

In the case of `COC(=O)c1c(C)nn(-c2ccc(F)c(Cl)c2)c1-c1cc(C)on1`, the “hERG current change (%, negative = inhibition) at 1uM” value amounted to 7.85%.

Regarding `O=C(CNC(=O)c1ccccc1F)OCc1nc2ccc(Cl)cc2n1CCO`, the “hERG current change (%, negative = inhibition) at 1uM” value is 5.8%.

Consider `O=C(NCC(c1ccco1)N1CCc2ccccc21)c1cccc(F)c1` (stereo not drawn), for which the “hERG current change (%, negative = inhibition) at 1uM” value came to 4.98%.

Regarding `O=C(N(c1ccccn1)c1ccccn1)C12CC3CC(CC(Cl)(C3)C1)C2`, the “hERG current change (%, negative = inhibition) at 1uM” value turned out to be 19.1%.

With `Cc1cc(=O)oc2cc(OCC(=O)NCCCN3CCCC3=O)c(Cl)cc12`, the “hERG current change (%, negative = inhibition) at 1uM” value is 8.81%.

Take `N/C(=N\OC(=O)c1cccnc1)c1ccc(Cl)cc1Cl`: the “hERG current change (%, negative = inhibition) at 1uM” value was determined as 10.5%.

As for `COCCn1c(SCC(=O)c2ccc(Cl)cc2)nnc1C(C)C`, the “hERG current change (%, negative = inhibition) at 1uM” value came out at 15.3%.

Take `CC(=O)Oc1ccc(C2(C)CC(C)(C)NC(=S)N2C)c(OC(C)=O)c1` (stereo not drawn): the “hERG current change (%, negative = inhibition) at 1uM” value is on record as 8.04%.

For `O=C(C1=C[C@H](c2csc3ccccc23)C[C@H](OCCCCO)O1)N1CCN(Cc2ccccc2)CC1`, the “hERG current change (%, negative = inhibition) at 1uM” value is listed as 13.7%.

For `CC(=O)NC1=NN(C(C)=O)C2(S1)C(=O)N(C(C)=O)c1ccc(C)cc12` (stereo not drawn), the “hERG current change (%, negative = inhibition) at 1uM” value was found to be 8.34%.

As to `O=C(c1ccco1)N1CCN(C(=O)c2cccc3c2C(=O)N(Cc2cccnc2)C3)CC1`, the “hERG current change (%, negative = inhibition) at 1uM” value is 20.2%.

With `COc1ccc(C2=NNC(c3cccnc3)=Nc3ccc(OC)cc32)cc1`, the “hERG current change (%, negative = inhibition) at 1uM” value is 6.5%.

Turning to `OCCNCCCCOc1ccc(F)cc1`, the “hERG current change (%, negative = inhibition) at 1uM” value was determined as 9.34%.

Regarding `COc1ccc(/C=C2\SC(N)=NC2=O)cc1Br`, the “hERG current change (%, negative = inhibition) at 1uM” value was found to be 14.4%.

Consider `CCOC(=O)c1ccc(NC(=O)c2c(N)n(C)c(=O)n(C)c2=O)cc1`, for which the “hERG current change (%, negative = inhibition) at 1uM” value is given as 9.49%.

Turning to `Cc1ccc(N=C2NC(=O)/C(=C/C=C/c3ccco3)S2)cc1C`, the “hERG current change (%, negative = inhibition) at 1uM” value is 18.9%.

In the case of `Cc1ccc(Nc2nc(N)nc(CN3CCN(c4ccccc4F)CC3)n2)cc1`, the “hERG current change (%, negative = inhibition) at 1uM” value is -27.2%.

As for `Cn1cccc1-c1cc(C(=O)N/N=C/C=C/c2ccccc2)[nH]n1`, the “hERG current change (%, negative = inhibition) at 1uM” value was -2.16%.

For the compound `C=CCc1c(C)nc2c(C(=O)O)cnn2c1C`, the “hERG current change (%, negative = inhibition) at 1uM” value was determined as 8.08%.

For `CCCc1nnc(NS(=O)(=O)c2ccc(OC)cc2)s1`, the “hERG current change (%, negative = inhibition) at 1uM” value turned out to be 16.5%.

For the compound `CCOC(=O)c1ccc(Nc2cc(C)nc3ncnn23)cc1`, the “hERG current change (%, negative = inhibition) at 1uM” value is reported as -3.47%.

With `CCN(C(=S)NC(=O)CCc1ccccc1)c1ccccc1`, the “hERG current change (%, negative = inhibition) at 1uM” value is -1.18%.

As to `Cc1cccc(Cn2c(N3CCN(C)CC3)nc3c2c(=O)n(C)c(=O)n3C)c1`, the “hERG current change (%, negative = inhibition) at 1uM” value is -9.31%.

On to `C=C1C(C(=O)Nc2ccc(F)cc2)C1C(=O)Nc1ccc(F)cc1` (stereo not drawn), for which the “hERG current change (%, negative = inhibition) at 1uM” value amounted to 19.8%.
